# Out of some 150,000 compounds screened, about 540 (0.36%) showed an effect of 50% or more. The list shows a part of the results.
# Test system: Plasmodium falciparum
# Assay: Primary screen in NF54 nanoGlo assay, in single point, at 2uM, 72h; a lower Z score goes with more inhibition
# Type: functional, Erythrocyte
# Conditions: timepoint 72 hour
Structure (SMILES),% Inhibition,Z score
CC(C)N(Cc1cc(-c2ccccc2)[nH]n1)C(=O)[C@@H]1CCCCO1,-6%,1.07
COc1cccc(S(=O)(=O)NC[C@H]2CCN(C)C(=O)C2)c1OC,-10%,1.94
O=C(NC1CCCCCCC1)c1cc2n(n1)C[C@@H](O)CNC2=O,-7%,0.68
COC(=O)[C@@H](NC(=O)Nc1ccccc1OC)C(C)C,-6%,0.49
O=C(OCc1csc(-c2ccccc2)n1)C1CCN(S(=O)(=O)c2ccc(Cl)cc2)CC1,2%,-0.38
CC(=O)N(Cc1cccnc1)[C@H]1CCCN(C(=O)Nc2ccc3c(c2)OCCO3)C1,-11%,1.94
CN(C(=O)[C@@H]1C[C@H]1C(=O)N(C)c1ncccc1F)c1ncccc1F,-20%,2.4
CCCc1ccc(C(=O)N2CCC(S(=O)(=O)c3ccc(F)cc3)CC2)cc1,-11%,1.46
C[C@H](C(=O)c1ccccc1)C12C(=O)NC(=O)C1C(=O)NC2=O (some centres undefined),-11%,1.33
CCc1ccc(C(=O)N2C[C@H](C(=O)NC)C3(CCCC3)C2)cc1,-10%,1.26
Cc1c(NC(=O)c2ccccc2OC[C@H]2CCCO2)c(=O)n(-c2ccccc2)n1C,-19%,2.11
COc1cnc(C(=O)N2Cc3cc(OC)c(OC)cc3C[C@H]2C(N)=O)cc1O,-7%,1.33
CN1CCC(N(CCO)Cc2csc3ccccc23)CC1,-1%,0.16
COc1ccc(-c2nc3ccc(C(=O)NCc4cccc(OC)c4)cc3nc2-c2ccc(OC)cc2)cc1,-1%,0.16
CCOC(=O)CN1CCC(Cn2cnc3ccccc32)CC1,12%,-1.42
C[C@H](NC(=O)c1cc(C(=O)O)co1)c1nc(C2CCCC2)no1,-9%,1.23
CN(C[C@H]1COc2ccccc2O1)C(=O)c1c[nH]c(=O)c(Cl)c1,-4%,0.55
Cc1nc(N[C@@H]2[C@@H]3CCO[C@@H]3[C@H]2NS(C)(=O)=O)c2sccc2n1,0%,-0.08
CS(=O)(=O)CC1(COc2ccc3c(n2)CCC3)CC1,4%,-0.61
CCc1ccc(NC(=O)Cc2c(C)nc3nc(-c4cccnc4)nn3c2C)cc1,3%,-0.48
O=C(NCc1ccsc1)NC[C@H](O)c1cccs1,16%,-2.07

Structure (SMILES),% Inhibition,Z score
Cc1cc2c(cc1NC(=O)Cn1ncccc1=O)N(C)S(=O)(=O)N2C,-12%,1.41
CC(C)NC(=O)N1CC[C@]2(C1)c1nc[nH]c1CCN2CC1CC1,-13%,2.3
CC1(C)C(CNC(=O)C2CC3CCC2O3)C1c1ccccc1 (centres undefined),5%,-0.75
CC(C)Cn1c(CNC(=O)c2ccco2)nnc1N1CC[C@H](C(C)(C)C)C1,2%,-0.17
COc1nc(C)cc(C)c1CN1CCC[C@@](O)(CO)C1,0%,0.06
O=C(c1cc(C2CC2)n[nH]1)N1CCN(c2cccc(C(F)(F)F)c2)CC1,-11%,0.95
C[C@@H](CC(=O)NC1CCCCCCC1)CC1=Nc2ccccc2S(=O)(=O)N1,-12%,1.47
Cc1ccc2ccc3cc(C(=O)N4CCN(c5ccc(F)cc5)CC4)[nH]c3c2n1,-8%,1.3
N#CCC1(O)CN(C(=O)c2ccc3cc[nH]c3c2)C1,3%,-0.32
NC(=O)[C@@H]1CCCN1Cc1c[nH]nc1-c1ccc(F)cc1,-7%,0.99
CCN(C[C@H]1CCOC1)C(=O)Cn1ccc(C(F)(F)F)n1,-8%,1.06
COc1cc(C(=O)NCCc2nccn2C)ccc1OC1CCN(C)CC1,-8%,0.96
COc1ccc(CN2[C@@H]3CN(S(=O)(=O)c4ccc(Cl)cc4)C[C@@H]3OCCS2(=O)=O)cc1,15%,-1.74
Cc1ccn2cc(CNC(=O)Nc3cccc(F)c3)nc2n1,-8%,1.28
CC(=O)C(C(=O)Nc1ccc(F)cc1)C(c1cccc(C(F)(F)F)c1)C(C#N)C#N (centres undefined),7%,-1.11
COc1cc(CNc2ccc(C(=O)NC3CCCCC3)cc2C)ccn1,14%,-1.93
CCn1cc(-c2ccc(Cl)cc2)cc1C(=O)N1CCN(C(C)C)CC1,1%,-0.21
C[C@H]1CN(S(=O)(=O)CCc2ccc3c(c2)CCO3)c2ccc(F)cc2O1,-8%,1.13
CC(C)(C)C(=O)NCC(=O)Nc1cc(C(F)(F)F)ccc1O,-10%,1.82
c1coc(-c2ccccc2-c2nccn2CCn2cnnc2)c1,-2%,0.2
FC(F)(F)c1nn2c(-c3ccc(Cl)cc3)nnc2c2c1nnn2Cc1ccccc1,-2%,0.32

Structure (SMILES),% Inhibition,Z score
CCn1nc(CN2CCC3(CCC3)S(=O)(=O)CC2)c2ccccc21,1%,-0.27
Cc1ccc(-c2cccnc2)cc1NC(=O)N1CC[S+]([O-])CCC1C (centres undefined),-14%,1.78
CC(C)C1CCCC(NC(=O)CCc2ncc[nH]2)CC1 (centres undefined),8%,-1.09
Cc1cc(S(=O)(=O)Nc2cccc(CN3CCOCC3)n2)sc1C,-15%,1.62
C[C@@H](C1CC1)N(C(=O)Cn1nnnc1C1CCCC1)C1CC1,33%,-2.77
CCCc1nc(CNS(=O)(=O)N2CCOCC2)cs1,-4%,0.78
COc1ccc(CN(C(=O)c2sccc2Cl)c2ccncc2)cc1,2%,-0.44
CC(C)OCC(=O)NCCc1ncnn1C,-21%,2.07
Cc1nc(C)c(Cn2c(=O)n(C)c3ccccc32)s1,3%,-0.26
COc1cc(OC)cc([C@@H](CC(=O)NCCC(c2ccccc2)c2ccccc2)c2cnc3ccc(Cl)cn23)c1,-5%,0.64
CN(C(=O)c1cnn(-c2ccccc2)c1C1CC1)C1CCC1,-8%,1.25
COc1cc2c(cc1OC)CN(C(=O)C1CCN(S(=O)(=O)c3ccc(C)cc3)CC1)CC2,-8%,1.58
CN1[C@@H](CCC(=O)Nc2ccccc2)CNC(=O)[C@@H]2[C@H]1CCN2Cc1csnn1,17%,-1.93
Cc1nc2ccc(N3C(=O)[C@H](C)N(Cc4ccccc4)C3=O)cc2o1,-10%,1.26
Cc1cnc([C@H](C)NS(=O)(=O)c2cccc3nsnc23)s1,-4%,0.45
CCN1CC(C)N(C(=O)c2n[nH]c3ccccc23)CC1C (centres undefined),-7%,0.72
CC(CC(=O)N1CCCC(c2nc(=O)[nH][nH]2)C1)c1ccc(F)cc1 (centres undefined),-2%,0.35
C[C@@H](C#N)N1CCN(C(=O)OCc2ccccc2)CC1,3%,-0.3
COc1ccc([C@H]2OCC[C@@H]2NC(=O)Nc2ncn(C(C)(C)C)n2)cn1,-4%,0.5
C[C@]1(O)CCN(C(=O)c2ccc3nccnc3c2)C[C@H]1O,-7%,0.82
Cc1cc(C2CCC2)nc(N(C)Cc2nccn2C)n1,-4%,0.73

Structure (SMILES),% Inhibition,Z score
CS(=O)(=O)N1CCc2cc(C(=O)N3CCC[C@H](CO)C3)ccc21,4%,-0.43
Cn1c(CN2CCNC(=O)[C@@H]2CCO)nc2ccccc21,-13%,1.39
Cc1ccc(Nc2n[nH]c(N)c2NC(=O)c2ccccc2)cc1,4%,-0.52
COc1ccc(NC(=O)c2nnc([C@H]3CCCN(C(=O)Nc4cc(C)ccc4C)C3)s2)cc1,-10%,1.51
O=C1CCCc2nc(N3CCc4ccccc4C3)ncc21,34%,-3.82
C[C@]1(O)CCN(c2ncnc3[nH]cnc23)C[C@H]1Cc1ccccc1,14%,-1.93
COc1ccccc1CNC(=O)c1nnc(-c2oc3ccc(C)cc3c2C)o1,13%,-1.53
CCOC1CC(NC(=O)c2c(C)noc2C)C12CCCC2 (centres undefined),-5%,0.88
Cc1ccc(Cl)cc1NC(=O)[C@H]1CCn2c(nc3ccccc32)C1,-3%,0.28
COc1cccc(C(=O)NC(C)C)c1O,-12%,1.04
COC(=O)c1cc(C(=O)NC[C@H]2CCCOC2)cn1C,7%,-1.12
Cc1oc(-c2cc(F)cc(F)c2)nc1CN1CCC(=O)NC[C@@H]1C,-9%,1.18
CCCCN(CC)C(=O)Nc1cc(Cl)c(OC)cc1OC,1%,-0.07
c1cc(-n2cnnc2)ccc1OC[C@H]1CCCO1,-6%,1.04
O=C(c1ccc2c(c1)CCCN2S(=O)(=O)c1ccccc1)N1CCN(Cc2ccccc2)CC1,0%,-0.05
CCc1cccc(NC(=O)N2CCN(c3nc(-c4cccc(C(F)(F)F)c4)nc(C)c3CC)CC2)c1,-3%,0.35
O=C(CNC(=O)NCC1CCCC1)Nc1cccc2c1OCO2,-7%,0.84
Cc1ccc(S(=O)(=O)NC[C@H]2O[C@@H](CO)[C@@H](O)[C@H]2N2CCOCC2)cc1,19%,-2.24
COc1cc(=O)n2c(c1C(=O)N1CCc3ccccc3C1)CCN(C(=O)c1[nH]c(C)cc1C)CC2,7%,-0.79

# From ChEMBL document CHEMBL4888484, “Replenishing the malaria drug discovery pipeline: Screening and hit evaluation of the MMV Hit Generation Library 1 (HGL1) against asexual blood stage Plasmodium falciparum ,using a nano luciferase reporter read-out” (2022)
